In all, about 280,000 compounds went through this assay and about 100 (0.036%) were called active. The shares of active, inactive and inconclusive entries below differ from those in the screen. Calls come from the whole dose curve; as a rule, active = well fitted inhibition curve with a large enough effect in the signal ratio, with a control signal flat (not every such curve was filed as active); inconclusive = small, poorly fitted or top-dose-only effect, or effect the other way, or a change in a side signal; inactive = no such curve, though single readings can be large or run the other way; the % refers to the signal ratio. Where the call is inconclusive, the potency comes from a doubtful curve fit. A note “side channel” means that the fit belongs to a control or component signal, not to the main read-out.
Target: Muscleblind-like protein 1 (Homo sapiens) (UniProt Q9NR56)
Experiment: qHTS Assay for Inhibitors of MBNL1-poly(CUG) RNA binding
Settings: TR-FRET MBNL1-His/biotin-(CUG)12 binding, 665/545 ratio; series mostly up to 57.5 µM
How it was run: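 Compounds (final 92 nM to 58 uM) are added to His-tagged MBNL1 and biotin-(CUG)12, then terbium anti-His antibody and streptavidin-XL665 (5 nM final). After 60 min at room temperature, the 665/545 nm ratio is read.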
Potency is the fitted concentration of half-maximal effect; tags give direction and shape of the fitted curve or compound fluorescence and quenching.

Chain of UniProt Q9NR56 (Q9NR56 whole entry, looked up): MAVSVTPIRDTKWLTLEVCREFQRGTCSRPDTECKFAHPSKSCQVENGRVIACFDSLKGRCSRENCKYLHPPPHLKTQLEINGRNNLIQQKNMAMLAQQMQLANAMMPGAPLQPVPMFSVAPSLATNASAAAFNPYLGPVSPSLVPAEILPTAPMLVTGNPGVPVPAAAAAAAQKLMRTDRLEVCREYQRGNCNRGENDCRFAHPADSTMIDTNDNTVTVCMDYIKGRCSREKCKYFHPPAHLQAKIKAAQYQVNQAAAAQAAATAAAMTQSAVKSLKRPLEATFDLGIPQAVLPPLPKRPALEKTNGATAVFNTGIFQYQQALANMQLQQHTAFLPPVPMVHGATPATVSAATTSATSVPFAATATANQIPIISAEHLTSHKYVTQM

| SMILES | Potency |
| --- | --- |
| CCCc1nc2sc3c(SCC(=O)NCc4ccco4)ncnc3c2c2c1CCC2 | inconclusive: 39.8 µM [fluorescent, side channel, single point] |
| Cc1ccccc1Nc1nc(Cl)c(C=O)s1 | inconclusive: 25.1 µM [quencher, side channel, partial curve, poor fit] |
| O=C(c1ccc(CN2CCc3ccccc3C2)cc1)N1CCN(c2ccccc2)CC1 | inconclusive: 6.31 µM [fluorescent, side channel, single point] |
| COc1cc([N+](=O)[O-])cc(/C=N/NC(=O)C(C)Nc2cccc(C)c2)c1O (configuration not stated) | inconclusive: 22.4 µM [quencher, side channel, single point] |
| O=C(O)c1cccc(Nc2ccc([N+](=O)[O-])cn2)c1 | inconclusive: 28.2 µM [quencher, side channel, partial curve] |
| CCN1C(=O)C(CC(=O)NC)N(NC(=O)c2ccccc2)C1=S (configuration not stated) | inconclusive: 14.1 µM [fluorescent, side channel, partial curve, poor fit] |
| COc1cc(/C=C/C(=O)Nc2ccc3[nH]c(=O)[nH]c3c2)cc(OC)c1OC | inconclusive: 3.55 µM [quencher, side channel, full curve] |
| COc1cccc(-c2nc(CS(=O)(=O)CC(=O)NCc3ccccc3OC)c(C)o2)c1 | inconclusive: 0.141 µM [quencher, side channel, partial curve, poor fit] |
| Cc1cc(C(=O)NCC(c2cccs2)N2CCOCC2)ccc1[N+](=O)[O-] (configuration not stated) | inconclusive: 25.1 µM [quencher, side channel, partial curve] |
| COc1ccc(N2C(=O)CC(Nc3ccc(F)cc3)C2=O)c([N+](=O)[O-])c1 (configuration not stated) | inconclusive: 20 µM [quencher, side channel, partial curve] |
| C=CCOc1ccc(/C(O)=C2\C(=O)C(=O)N(CCN(C)C)C2c2cccs2)cc1 (configuration not stated) | inconclusive: 31.6 µM [quencher, side channel, single point] |
| O=C(NNC(=O)C1CC1c1ccccc1)c1cccc([N+](=O)[O-])c1 (configuration not stated) | inconclusive: 22.4 µM [quencher, side channel, single point] |
| O=C1c2cccc3c([N+](=O)[O-])ccc(c23)C(=O)N1CC1CCCO1 (configuration not stated) | inconclusive: 2.51 µM [quencher, side channel, full curve] |
| CCNc1nc(=S)nc(NC(C)C)[nH]1 | inconclusive: 0.0794 µM [fluorescent, side channel, full curve] |
| O=[N+]([O-])c1ccc2[nH]c3c(c2c1)CCCC3O (configuration not stated) | inconclusive: 31.6 µM [quencher, side channel, partial curve] |
| Cc1ccccc1/C=C1\OC(=O)c2ccccc21 | inactive |
| COc1ccccc1-c1cc(C(=O)NCc2ccc(F)cc2)no1 | inactive |
| COC(=O)c1ccc(C(=O)Nc2ccc(C(C)C)cc2N)cc1 | inactive |
| C[C@@H]1NC(=O)c2cc([N+](=O)[O-])cc(I)c2NCCCC[C@@H](C(N)=O)NC(=O)[C@H](CC(N)=O)NC1=O | inconclusive: 12.6 µM [quencher, side channel, partial curve] |

| SMILES | Potency |
| --- | --- |
| NC(=S)NNC(=O)Nc1cccc(Cl)c1 | inactive |
| CCc1cccc(C)c1NC(=O)CSc1nc(-c2ccccc2F)nc2nc[nH]c12 | inconclusive: 22.4 µM [fluorescent, side channel, partial curve] |
| CCCCN1C(=O)c2ccc(C(=O)Nc3cccc(C)c3C)cc2C1=O | inactive |
| Clc1ccc(CNc2ccc3nnc(-c4ccccc4)n3n2)cc1 | inactive |
| CCOC(=O)c1c(C)[nH]c(C)c1C(=O)CSc1nc2ccccc2c(=O)n1-c1ccccc1C | inactive |
| NC(=O)CC(NC(=O)Cc1ccc(Br)cc1)c1ccc(NCCN2CCCC2)c([N+](=O)[O-])c1 (configuration not stated) | inconclusive: 20 µM [quencher, side channel, single point] |
| O=C(COC(=O)COc1ccccc1)Nc1cccc([N+](=O)[O-])c1 | inconclusive: 17.8 µM [quencher, side channel, partial curve] |
| O=C(COC(=O)Cn1cnc2ccccc21)Nc1cccc2c1C(=O)c1ccccc1C2=O | inconclusive: 7.08 µM [quencher, side channel, partial curve] |
| CN(C)Cc1c(C(=O)N/N=C/c2ccco2)nnn1-c1nonc1N | inconclusive: 28.2 µM [quencher, side channel, single point] |
| O=C1c2ccccc2C(=O)N1/N=C/c1ccc(Oc2ccc([N+](=O)[O-])cn2)cc1 | inconclusive: 3.55 µM [quencher, side channel, full curve] |
| C/C=C/C=C\C(=O)Nc1cccc(C2=NOC3(C2)C[C@@H](C(N)=O)N(C(=O)c2cc([N+](=O)[O-])cc([N+](=O)[O-])c2)C3)c1 (some centres not stated) | inconclusive: 15.8 µM [quencher, side channel, partial curve] |
| CCOC(=O)c1cc2c(=O)n3ccccc3nc2n(CCOC)c1=NC(=O)c1ccncc1 | inconclusive: 28.2 µM [quencher, side channel, partial curve] |
| CN1CCN(C(=O)/C(=C/c2cccc([N+](=O)[O-])c2)NC(=O)c2ccccc2)CC1 | inconclusive: 20 µM [quencher, side channel, partial curve] |
| NC1=Nc2cccc3cccc1c23 | inconclusive: 12.6 µM [quencher, side channel, partial curve] |
| O=C(N/N=C/c1cc(Br)c(Br)o1)C(O)c1ccccc1 (configuration not stated) | inconclusive: 14.1 µM [quencher, side channel, partial curve] |
| O=C(Cn1cnc2cc([N+](=O)[O-])ccc2c1=O)Nc1ccccc1Cl | inconclusive: 3.98 µM [quencher, side channel, partial curve] |
| COc1c(O)ccc(/C=C(\C#N)c2nc3ccccc3[nH]2)c1[N+](=O)[O-] | inconclusive: 14.1 µM [quencher, side channel, partial curve] |
| COCC1CCN(C(=O)c2ccc3oc(Cc4ccccc4)nc3c2)C1 (configuration not stated) | inconclusive: 1.78 µM [quencher, side channel, full curve] |
| O=c1c2cnn(-c3ccccc3)c2nnn1/N=C/c1cccnc1 | inconclusive: 0.562 µM [quencher, side channel, full curve, poor fit] |

| SMILES | Potency |
| --- | --- |
| COc1cc2cc[n+](Cc3ccc([N+](=O)[O-])cc3)cc2cc1OC | inconclusive: 15.8 µM [quencher, side channel, partial curve] |
| O=[N+]([O-])c1ncn(Cc2c(Cl)cccc2Cl)n1 | inconclusive: 0.158 µM [quencher, side channel, full curve] |
| COc1ccccc1NC(=O)NCc1ccco1 | inactive |
| CCN(C(=O)Cn1nc(C(=O)O)c2ccccc2c1=O)C1CCCCC1 | inactive |
| CC(=O)c1c(COC(=O)c2ccccc2)nc2ccccc2[n+]1[O-] | inconclusive: 1.78 µM [quencher, side channel, full curve] |
| CSc1ccc(CNc2ncc(-c3cccc([N+](=O)[O-])c3)n2C)cc1 | inconclusive: 14.1 µM [quencher, side channel, partial curve] |
| Cc1cc(C(=O)CCl)c(C)n1-c1cccc(S(=O)(=O)N2CCOCC2)c1 | inactive |
| O=C(CCCCCN1C(=O)c2cccc3cccc(c23)C1=O)NCCO | inconclusive: 7.08 µM [quencher, side channel, partial curve] |
| NC(=O)c1ccc(N2CCN(c3ccccc3F)CC2)c([N+](=O)[O-])c1 | inconclusive: 7.08 µM [quencher, side channel, partial curve] |
| CCc1ccc2c(c1)C(=O)c1ccccc1C2=O | inconclusive: 5.62 µM [quencher, side channel, partial curve] |
| CCC(=O)N(CC(=O)Nc1sc(C)c(C)c1C(N)=O)C1CCCCC1 | inconclusive: 39.8 µM [quencher, side channel, single point] |
| O=C1CSC(c2ccccc2)N1Nc1nc(N2CCOCC2)nc(N2CCOCC2)n1 (configuration not stated) | inconclusive: 0.794 µM [fluorescent, side channel, single point] |
| CC(=O)Nc1ccc(/C=C/c2nc3ccccc3[nH]c2=O)cc1 | inconclusive: 15.8 µM [quencher, side channel, partial curve] |
| N#C/C(C(=O)Oc1ccccc1)=C1\C=Cc2ccccc2N1 | inconclusive: 2.51 µM [quencher, side channel, full curve, poor fit] |
| O=C1CN(CC(=O)N2CCOCC2)c2ccccc2O1 | inconclusive: 14.1 µM [quencher, side channel, partial curve] |
| O=c1[nH]c(SCc2ccccc2[N+](=O)[O-])nc2nc[nH]c12 | inconclusive: 12.6 µM [quencher, side channel, partial curve] |
| O=C(N/N=C\c1ccc([N+](=O)[O-])s1)C1COc2ccccc2O1 (configuration not stated) | inconclusive: 3.98 µM [quencher, side channel, partial curve] |
| CCOC(=O)c1c(N)n(CCOC(=O)c2cccs2)c2nc3ccccc3nc12 | inconclusive: 15.8 µM [quencher, side channel, partial curve] |
| O=C(CN1C(=O)/C(=C/c2ccccc2)SC1=S)NC1C=CS(=O)(=O)C1 (configuration not stated) | inconclusive: 8.91 µM [quencher, side channel, partial curve] |

From PubChem BioAssay AID2675 (National Center for Advancing Translational Sciences (NCATS), 2010)
